# Assay results as given in the supplement of paper PMC8728848.
# Some of the results follow.
# B1: Pbx1 (Cryptococcus neoformans) (protein)
# chain: ATTKCLVSGDQDSINNALALGGEGTTVTLCPGSVHRLNSSIIFTAPSQTLTTLGNPKDRNRAMLVVDGEDLACAIRADCKQCSHAMIRSLVIDGNRPQLLRIPKGDALIEVGNAESQTVRDCKLYEPRGWSALHFREGDERQCRFGHIVDNEIGPCGEEWDDEYDSMDETKPLWGNPRADGISLACKDSIVERNVVYDATDGAIVLFGSAGSTVKNNHVYARTRVILGGINLVDYEPWDGDYTNVKVHHNHLYALGRYFKVGIVIGPASWSDDTESVVHSASVTDNEFSGGYWGYGIVVASAKNFEVLRNKVIWDGEQGVARFSGVPGSRCPKAPENGKPTAFLINRGSAKGIFQDDFVNGEVQHIICLNPDQDPPYKPWRFRDSPEAIAAKQAENPTANSAFDSRIAEALVSYQMSLLNSMDAMTQKVEHLTNPIVDDALPFVHEHERAEADKKARQEASRKEKESGNKDVDMLNVKVEELEKSGRRLKKALDGLKSDFEGLSGRLKKSADENKPIIETIFVTSQNLLLGATSQQN
# What was measured:
# Assay in all cases: glycan array binding signal (z-score within array); higher = stronger binding
# Conditions in all cases: glycan notation: IUPAC condensed, linker removed
# [1] = biological target: Neu5Ac(a2-6)Gal(b1-4)GlcNAc(b1-6)[Gal(b1-3)GlcNAc(b1-3)]Gal(b1-4)Glc
# Outline: (§1)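 Columns mapping to the same glycan were averaged after glycan names were converted to IUPAC-condensed notation. The data come from 3228 arrays in the Consortium for Functional Glycomics database, limited to those with an available protein sequence. Binding is reported as a within-array Z-score averaged across arrays of one protein sequence and across linkers.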
# [2] = biological target: Neu5Ac(a2-6)Gal(b1-4)GlcNAc(b1-6)[Gal(b1-3)]GalNAc
# Outline: as §1
# [3] = biological target: Neu5Ac(a2-6)Gal(b1-4)GlcNAc6S
# Outline: as §1
# [4] = biological target: Neu5Ac(a2-6)GalNAc
# Outline: as §1
# [5] = biological target: Neu5Ac(a2-6)GalNAc(b1-4)GlcNAc
# Outline: as §1
# [6] = biological target: Neu5Ac(a2-6)GalNAc(b1-4)GlcNAc6S
# Outline: as §1
# [7] = biological target: Neu5Ac(a2-6)GlcNAc(b1-4)GlcNAc
# Outline: as §1
# [8] = biological target: Neu5Ac(a2-6)GlcNAc(b1-4)GlcNAc(b1-4)GlcNAc
# Outline: as §1
# [9] = biological target: Neu5Ac(a2-8)Neu5Ac
# Outline: as §1
# [10] = biological target: Neu5Ac(a2-8)Neu5Ac(a2-3)Gal(b1-3)GalNAc(b1-4)[Neu5Ac(a2-3)]Gal(b1-4)Glc
# Outline: as §1
# [11] = biological target: Neu5Ac(a2-8)Neu5Ac(a2-3)Gal(b1-3)GalNAc(b1-4)[Neu5Ac(a2-8)Neu5Ac(a2-3)]Gal(b1-4)Glc
# Outline: as §1
# [12] = biological target: Neu5Ac(a2-8)Neu5Ac(a2-3)Gal(b1-4)Glc
# Outline: as §1
# [13] = biological target: Neu5Ac(a2-8)Neu5Ac(a2-3)Gal(b1-4)GlcNAc
# Outline: as §1
# [14] = biological target: Neu5Ac(a2-8)Neu5Ac(a2-3)[Gal(b1-3)GalNAc(b1-4)]Gal(b1-4)Glc
# Outline: as §1
# [15] = biological target: Neu5Ac(a2-8)Neu5Ac(a2-3)[GalNAc(b1-4)]Gal(b1-4)Glc
# Outline: as §1
# [16] = biological target: Neu5Ac(a2-8)Neu5Ac(a2-8)Neu5Ac
# Outline: as §1
# [17] = biological target: Neu5Ac(a2-8)Neu5Ac(a2-8)Neu5Ac(a2-3)Gal(b1-4)Glc
# Outline: as §1
# [18] = biological target: Neu5Ac(a2-8)Neu5Ac(a2-8)Neu5Ac(a2-3)[Gal(b1-3)GalNAc(b1-4)]Gal(b1-4)Glc
# Outline: as §1
# [19] = biological target: Neu5Ac(a2-8)Neu5Ac(a2-8)Neu5Ac(a2-3)[GalNAc(b1-4)]Gal(b1-4)Glc
# Outline: as §1
# [20] = biological target: Neu5Ac(a2-8)Neu5Ac(a2-8)Neu5Ac(a2-8)Neu5Ac(a2-3)[GalNAc(b1-4)]Gal(b1-4)Glc
# Outline: as §1
# [21] = biological target: Neu5Ac(a2-8)Neu5Gc(a2-3)Gal(b1-4)GlcNAc
# Outline: as §1
# [22] = biological target: Neu5Ac(b2-6)Gal(b1-4)GlcNAc
# Outline: as §1
# [23] = biological target: Neu5Ac(b2-6)GalNAc
# Outline: as §1
# [24] = biological target: Neu5Ac9Ac(a2-3)Gal(b1-4)GlcNAc
# Outline: as §1
# [25] = biological target: Neu5Ac9Ac(a2-6)Gal(b1-4)GlcNAc
# Outline: as §1
# [26] = biological target: Neu5Gc(a2-3)Gal(b1-3)GlcNAc
# Outline: as §1
# [27] = biological target: Neu5Gc(a2-3)Gal(b1-3)[Fuc(a1-4)]GlcNAc
# Outline: as §1
# [28] = biological target: Neu5Gc(a2-3)Gal(b1-4)Glc
# Outline: as §1
# [29] = biological target: Neu5Gc(a2-3)Gal(b1-4)GlcNAc
# Outline: as §1
# [30] = biological target: Neu5Gc(a2-3)Gal(b1-4)GlcNAc(b1-3)Gal(b1-4)GlcNAc(b1-2)Man(a1-3)[Neu5Gc(a2-3)Gal(b1-4)GlcNAc(b1-3)Gal(b1-4)GlcNAc(b1-2)Man(a1-6)]Man(b1-4)GlcNAc(b1-4)GlcNAc
# Outline: as §1
# [31] = biological target: Neu5Gc(a2-3)Gal(b1-4)[Fuc(a1-3)]GlcNAc
# Outline: as §1
# [32] = biological target: Neu5Gc(a2-6)Gal(b1-4)GlcNAc
# Outline: as §1
# [33] = biological target: Neu5Gc(a2-6)GalNAc
# Outline: as §1
# [34] = biological target: Neu5Gc(a2-8)Neu5Ac(a2-3)Gal(b1-4)GlcNAc
# Outline: as §1
# [35] = biological target: Neu5Gc(a2-8)Neu5Gc(a2-3)Gal(b1-4)GlcNAc
# Outline: as §1
# [36] = biological target: Neu5Gc(a2-8)Neu5Gc(a2-3)Gal(b1-4)GlcNAc(b1-3)Gal(b1-4)GlcNAc
# Outline: as §1
# [37] = biological target: Neu5Gc(a2-8)Neu5Gc(a2-6)Gal(b1-4)GlcNAc
# Outline: as §1
# [38] = biological target: Neu5Gc(b2-6)Gal(b1-4)GlcNAc
# Outline: as §1
binder,measurement,setting,value
B1,glycan array binding signal (z-score),[1],0.223
same,glycan array binding signal (z-score),[2],0.736
same,glycan array binding signal (z-score),[3],-0.165
same,glycan array binding signal (z-score),[4],-0.606
same,glycan array binding signal (z-score),[5],-0.7
same,glycan array binding signal (z-score),[6],-0.237
same,glycan array binding signal (z-score),[7],-0.909
same,glycan array binding signal (z-score),[8],-0.39
same,glycan array binding signal (z-score),[9],-0.43
same,glycan array binding signal (z-score),[10],-0.124
same,glycan array binding signal (z-score),[11],-0.622
same,glycan array binding signal (z-score),[12],-0.317
same,glycan array binding signal (z-score),[13],0.133
same,glycan array binding signal (z-score),[14],-0.39
same,glycan array binding signal (z-score),[15],-0.012
same,glycan array binding signal (z-score),[16],-0.162
same,glycan array binding signal (z-score),[17],-0.451
same,glycan array binding signal (z-score),[18],-0.609
same,glycan array binding signal (z-score),[19],0.643
same,glycan array binding signal (z-score),[20],-0.11
same,glycan array binding signal (z-score),[21],-0.306
same,glycan array binding signal (z-score),[22],-0.212
same,glycan array binding signal (z-score),[23],-0.769
same,glycan array binding signal (z-score),[24],-0.26
same,glycan array binding signal (z-score),[25],-0.625
same,glycan array binding signal (z-score),[26],-0.531
same,glycan array binding signal (z-score),[27],-0.06
same,glycan array binding signal (z-score),[28],-0.927
same,glycan array binding signal (z-score),[29],-0.796
same,glycan array binding signal (z-score),[30],-0.216
same,glycan array binding signal (z-score),[31],0.018
same,glycan array binding signal (z-score),[32],-0.877
same,glycan array binding signal (z-score),[33],-0.017
same,glycan array binding signal (z-score),[34],-0.771
same,glycan array binding signal (z-score),[35],-0.738
same,glycan array binding signal (z-score),[36],-0.058
same,glycan array binding signal (z-score),[37],-0.615
same,glycan array binding signal (z-score),[38],-0.471
